# In all, about 33,000 sequences were measured (“E-score (-0.5 to 0.5)”: median about -0.016, highest 2% from about 0.32 on). The list shows a part of the results.
# Biological target: T1, Stp1 (UniProt B3LFK1)
# T1 sequence: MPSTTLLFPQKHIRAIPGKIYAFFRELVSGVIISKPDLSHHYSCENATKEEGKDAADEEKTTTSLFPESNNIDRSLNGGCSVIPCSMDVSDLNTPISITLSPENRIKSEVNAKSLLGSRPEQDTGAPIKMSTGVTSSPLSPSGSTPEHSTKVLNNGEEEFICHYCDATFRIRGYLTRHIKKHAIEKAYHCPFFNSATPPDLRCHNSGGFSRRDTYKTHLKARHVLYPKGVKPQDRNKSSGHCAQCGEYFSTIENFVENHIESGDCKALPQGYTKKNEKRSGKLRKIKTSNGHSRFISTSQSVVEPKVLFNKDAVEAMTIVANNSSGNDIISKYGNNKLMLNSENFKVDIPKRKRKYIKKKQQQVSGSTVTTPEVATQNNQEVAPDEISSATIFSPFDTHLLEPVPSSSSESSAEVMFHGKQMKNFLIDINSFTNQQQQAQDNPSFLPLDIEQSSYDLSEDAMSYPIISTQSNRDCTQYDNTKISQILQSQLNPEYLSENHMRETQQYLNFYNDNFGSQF
# Test: PBM E-score (8-mer binding enrichment) (E-score (-0.5 to 0.5)); higher = stronger / more preferred TF binding; most listed sequences are background and not binding sites
# Details: protein concentration: 200 nM; construct: GST-full length
# Summary of the method: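 The E-score, a modified Wilcoxon-Mann-Whitney statistic, was computed by the Universal PBM Analysis Suite for every ungapped eight-base word pooled with its reverse complement. Scans behind it were normalised with masliner after bound GST-tagged yeast transcription factors were detected with fluorescent anti-GST. The proteins, at about 100-200 nM, had been applied to universal all-10-mer Agilent arrays made double-stranded by primer extension.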
row,Sequence,PBM E-score
1,CCGGTAGA,-0.0825
2,CAACCAGG,-0.196
3,GAAGTATC,0.144
4,ACTGGGAA,-0.0304
5,ACGTGAGT,-0.0754
6,AAGTTATG,0.127
7,ATCTACGA,-0.159
8,AATAATCA,0.132
9,CCATCGGC,-0.0531
10,CTCTTCAC,-0.0918
11,GCTTTTGA,-0.134
12,CATCATGG,-0.188
13,CAATTAGA,0.0229
14,CACGTGAC,-0.0745
15,GCACGAGA,0.0842
16,GCCGGTTA,-0.0255
17,CCGCGATA,-0.00263
18,CATTTTAA,0.251
19,AGCTCCAG,-0.232
20,CGCACGAA,0.189
21,AGCCCGAA,-0.133
22,CAAGTCGA,-0.103
23,GACTTCAA,-0.147
24,CCGGTGTC,-0.246
25,ACTTGGTG,-0.115

row,Sequence,PBM E-score
1,ACAGCGTG,0.0129
2,AGAGAACT,-0.139
3,ACCACTGC,-0.101
4,AGGACGCA,-0.203
5,CCCCGCGG,0.199
6,GGTCGCTA,-0.145
7,AAGCTATG,-0.229
8,GCACAACA,0.0257
9,TCGCTCCA,0.0576
10,ACTCGGAT,0.0731
11,GGTTTATA,0.0512
12,GATCGTCA,-0.204
13,AAGAGCAG,-0.111
14,GGACTGGA,-0.188
15,AGGCTATA,-0.0231
16,CATGATCA,0.125
17,TAAGAGTA,0.0238
18,CTGCATTA,-0.0491
19,CCAGAGGC,-0.115
20,CGACGCCC,0.0245
21,CCGCTTAA,0.164
22,ACCTGGGG,-0.285
23,GCGATCCA,0.00156
24,AGACGCCA,0.00574
25,TACCTTCA,-0.0363

row,Sequence,PBM E-score
1,CCAGCCAG,-0.336
2,AGATATTA,0.0622
3,ACCCTGGG,-0.26
4,AAACTCGG,-0.0615
5,ACCTCCTG,-0.302
6,CATCAGCC,-0.04
7,AACGCGGG,0.184
8,AATGAAAC,0.17
9,CACCGAGG,0.0169
10,GATCAAGA,0.124
11,GCCGCCCC,0.378
12,AAGGAATT,0.00384
13,ACTGCAGC,-0.118
14,ATCGGCAA,0.106
15,ACCGCCAC,-0.0221
16,GTACATAA,0.0315
17,TGTCGACA,-0.185
18,AGGTGAAG,-0.132
19,ACAGATTC,0.15
20,GCACCGCA,0.126
21,AAAGAGTC,-0.265
22,AAGTGTCT,-0.0515
23,ATTTACAG,0.149
24,AAGCAGCT,-0.0912
25,AGAGTCCC,-0.281

row,Sequence,PBM E-score
1,ATGTGCAC,-0.13
2,ATCTCTTA,-0.0224
3,GGTAGACA,-0.213
4,CTGCTGCC,0.00135
5,CCGCGCGC,0.381
6,ACCCAGTA,-0.223
7,AACCGTGG,-0.00732
8,GTGGAGTA,0.0362
9,ACGTCTCG,-0.102
10,CATTAATA,0.152
11,GCATAGAA,0.133
12,CAAGCGAG,-0.0615
13,CATCCCCA,-0.172
14,AATAGAGA,0.101
15,ACGAACGG,0.258
16,ACGCTAGC,-0.408
17,ATGGGAGC,-0.164
18,TAGCCATA,-0.0174
19,AAGAATTG,0.0519
20,GATGCGCC,0.194
21,CAACTGGA,0.0581
22,GACACACC,-0.137
23,TGAGCCAA,-0.0647
24,CTATGCAC,-0.116
25,GCTAGAAA,0.162

row,Sequence,PBM E-score
1,CCAGACCA,-0.0853
2,GAATGTCA,0.0119
3,CTCACACA,-0.0213
4,AGAATTAC,0.0123
5,CAGAGAGC,-0.148
6,AACGGGCC,-0.0518
7,ACTACGCA,-0.222
8,CAACCATC,-0.23
9,GGTTCGAC,-0.084
10,CGTTCTCA,0.0363
11,CCCTTAGA,-0.296
12,AATGTGTC,0.0247
13,CCATCCCA,-0.0834
14,TGACACAA,0.0576
15,ATGGGTCA,-0.255
16,ACAAATTA,0.226
17,ATCTCCCC,-0.378
18,AGTGCATA,-0.115
19,ATACTGCG,-0.0432
20,AGTCACAA,-0.0332
21,CATGGTCC,-0.137
22,CAAGTTGG,0.0131
23,ATCCCATA,-0.158
24,CCCGACAC,-0.302
25,CCAAGCGA,-0.0193

row,Sequence,PBM E-score
1,AAGCGCGG,0.171
2,ATGAGGAA,-0.0278
3,GTATGAGA,-0.0511
4,CATGCGGC,0.459
5,ATAGCAAA,-0.038
6,GCAAGCCC,-0.132
7,GACCGCGA,-0.0775
8,CCACTCAC,0.037
9,GCGATTAC,-0.0705
10,CATCCTGC,-0.266
11,CAAGATAG,-0.122
12,GGTACAGA,-0.0522
13,GATGCATA,-0.0716
14,ACTGGTGA,-0.207
15,CCCCCCCA,-0.255
16,CCTTAATA,0.0831
17,CACTCTCC,-0.0133
18,CTAGAGCC,0.184
19,CCACAACC,0.00543
20,AACCAGCA,-0.207
21,AAGAGAGT,-0.0866
22,CGGAAAAG,0.0534
23,ATTGTCGG,0.0544
24,AACCTTTC,-0.201
25,GCGTGAGA,0.0909

row,Sequence,PBM E-score
1,ATTTTTGC,0.211
2,GAAGAACC,-0.181
3,AATGAATT,0.167
4,ACTTGTTC,0.0036
5,GCGAGACC,-0.0269
6,GCTGACCA,-0.137
7,CGAGAACG,0.0278
8,ATGTCGCG,0.124
9,AGGGATCC,-0.27
10,AGCACGAG,0.0583
11,GGTATCAA,-0.0075
12,ACAGGACC,-0.156
13,CCTCCCGC,-0.0365
14,TCTCCGCA,-0.0488
15,TATGGGAA,-0.0704
16,AAAAACGA,0.128
17,ACTACAAC,0.131
18,CACGCAGA,-0.0561
19,AGACCGAT,-0.178
20,AGCATCCC,-0.307
21,CACATGGG,-0.178
22,GTTGGGGA,-0.215
